# Assay results as given in PubChem BioAssay AID1671193 (National Center for Advancing Translational Sciences (NCATS), 2021).
# In all, about 150,000 compounds went through this assay and about 180 (0.12%) were called active. The inconclusive results got no clear call from the source; some entries with a clear call stand among them for comparison. Calls come from the whole dose curve; as a rule, active = well fitted cell-killing curve with a large enough effect; inconclusive = small, poorly fitted or top-dose-only effect, or effect the other way; inactive = flat fitted curve, though single readings scatter. A potency beside an inconclusive call is a rough fit, not a confirmed value.
# Assay: GF-AFC viability counterscreen for inhibitors of alpha-synuclein gene (SNCA) expression; note: nearly all actives have a fitted effect of over 30% in size
# Conditions: HEK-293-SNCA-luc viability, GF-AFC fluorescence, 24 h; series mostly up to 57.1 µM
# Text: Assay Submitter (PI): Daniel R. Scoles Ph.D.
# Department of Neurology, University of Utah, Salt Lake City, Utah
# Accumulation of alpha-synuclein is a main underlying pathological feature of Parkinson's disease (PD) and alpha-synucleinopathies, for which lowering expression of the alpha-synuclein gene (SNCA) is a potential therapeutic avenue. Using a cell-based luciferase reporter of SNCA expression we performed a quantitative high throughput screen (qHTS) of 155,885 compounds in dose response. The screening assay was generated using genome editing to insert the luciferase gene downstream and in frame of the SNCA gene in HEK-293 cells (1). A viability counterscreen using GF-AFC was used to eliminate cytotoxic and false positive compounds. After in silico analysis (clustering, removal of frequent hitter nuisance chemotypes), inhibitor compounds from the primary screen were selected for follow up and re-tested at 11-doses in the SNCA-luc cells (luciferase and GF-AFC confirmation), and in CMV-luc expressing cell line to flag general transcriptional repressors.
# Described herein are the results of the GF-AFC viability counterscreen for SNCA inhibitors; inactivity (no decrease in fluorescence signal, not cytotoxic) is the desired output for this assay.
# 1. Dansithong, W., Paul, S., Scoles, D. R., Pulst, S. M., and Huynh, D. P. (2015) Generation of SNCA Cell Models Using Zinc Finger Nuclease (ZFN) Technology for Efficient High-Throughput Drug Screening. PLoS ONE 10, e0136930.
# SEQUENCE No. (e.g., 1, 2, 3, etc.); […] (e.g., Cells, Incubation, Reagent, etc.); VALUE; DESCRIPTION
# 1; Cells; 4 uL; Dispense 1500 HEK-293-SNCA-luc cells/well into Greiner 1536-well white / solid bottom tissue culture treated plate. The plate was covered with metal lids with gas-exchange holes.
# 2; Incubate; 24 hours; Incubate at 37C, 5% CO2, 95% RH.
# 3; Compounds; 23 nL; Compounds and controls were transferred via a Kalypsys Pin Tool (Wako USA) equipped with a 1536-slotted pin array. The plate was covered with metal lids with gas-exchange holes.
# 4; Incubate; 24 hours; Incubate at 37C, 5% CO2, 95% RH.
# 5; Dispense; 1 uL; Dispense Gly-Phe-7-amino-4-trifluoromethylcoumarin (GF-AFC, prepared at 125 uM in PBS) was added. The plate was covered with metal lids with gas-exchange holes.
# 6; Incubate; 30 min; Incubate at 37C, 5% CO2.
# 7; Detector; Fluorescence; Measure fluorescence with ViewLux microplate reader (PerkinElmer) equipped with 405/10 excitation and 540/25 emission filters.
# 8; Dispense; 3 uL; Dispense ONE-Glo ([…]) lucifase detection reagent was added to each well. Plates were covered with metal lids with gas-exchange holes.
# 9; Incubate; 15 min; Incubate at room temperature.
# 10; Detector; Luminescence; Measure luminescence with ViewLux microplate reader (PerkinElmer) equipped with clear filters.
# NOTES (numbers refer to sequence above)
# 1; HEK-293-SNCA-luc were cultured and suspended in phenol-red free DMEM (4.5 g/L glucose, 25 mM HEPES, cat #21063 (Thermo)).
# 3; Compounds were added to the assay plate in an 11-point intra plate dose response, 1:3 titration in DMSO with a final concentration range of […]. Vehicle-only plates, with DMSO being pin-transferred to every well, were inserted at the beginning of screening runs to confirm expected assay performance. Activity was normalized to wells containing medium only (-100% activity, full inhibition) and SNCA-luc cells treated with DMSO vehicle control (0% activity), contained on the same plate as test samples.
# 10; Signals were analyzed, and dose-response curves were fit using the Hill equation. Compounds in curve classes -1.1, -1.2, -2.1, -2.2 in the SNCA-luc assay were considered active. Compounds were eliminated from further consideration if also active (curve class -1.1, -1.2, -1.3, -1.4, -2.1, -2.2, -2.3, -2.4) in the GF-AFC cytotoxicity assay.
# Potency is the fitted concentration of half-maximal effect; tags give direction and shape of the fitted curve.
row,SMILES,Potency
1,Cc1ccc(Cl)cc1N1CCN(S(=O)(=O)c2ccc3c(c2)CCCN3C(=O)C2CCC2)CC1,"inconclusive: 0.251 µM [rising, full curve]"
2,CC(C)N1C(=O)C(CC(=O)NCCc2c[nH]c3ccccc23)=C2CCCCC21 (stereo unspecified),inactive
3,COc1ccc(C(=O)N2CCC(Cc3nc(-c4ccccc4)no3)CC2)cc1OC,"inconclusive: 35.5 µM [cytotoxic, single point]"
4,COc1ccc(C(=O)N2CCCN(c3cc(-c4ccc(Cl)cc4)[nH]n3)CC2)cc1F,"inconclusive: 39.8 µM [cytotoxic, single point]"
5,COc1ccccc1N1CCN(CCCNC(=O)c2cnn(-c3ccccc3)c2C2CCN(C(=O)OC(C)(C)C)CC2)CC1,"inconclusive: 39.8 µM [cytotoxic, single point]"
6,CCOc1ccccc1CNC(=O)C1CCN(S(=O)(=O)c2ccc3c(ccn3C)c2)CC1,"inconclusive: 8.91 µM [rising, partial curve, poor fit]"
7,COc1ccccc1Nc1cnc2ccc(-c3cccc(CO)c3)nn12,"inconclusive: 28.2 µM [cytotoxic, partial curve, poor fit]"
8,CC#CCn1cc2c3c(cccc31)[C@H](CC(C)C)N[C@H](C(=O)NCc1cccs1)C2,"inconclusive: 56.2 µM [cytotoxic, single point]"
9,CCN(CC)CCCCNc1nc2cc(Cl)c(Cl)cc2nc1-c1ccc(-c2cccs2)s1,"inconclusive: 21.5 µM [rising, partial curve]"
10,CN(C)c1cccc(C(=O)N2CCC(n3cc(-c4nc(-c5ccccc5)no4)nn3)C2)c1 (stereo unspecified),"inconclusive: 39.8 µM [cytotoxic, single point]"
11,Oc1ccc(-c2nc(C3CC3)nc3c2CN(Cc2cccc4ccccc24)CC3)cc1,"inconclusive: 39.8 µM [cytotoxic, single point]"
12,CCOc1ccccc1C(=O)NC1CCCN(c2cc(-c3ccc(Cl)cc3)[nH]n2)C1 (stereo unspecified),"inconclusive: 17.8 µM [cytotoxic, partial curve]"
13,O=C(NCCc1ccccn1)C1CCCN(c2nc(-c3ccccc3)nc3c2CCC3)C1 (stereo unspecified),"inconclusive: 2.51 µM [cytotoxic, partial curve, poor fit]"
14,CC1=C[C@@H](CN2CCCC2)[C@H](C(C)C)C[C@H]1Cc1nnc(-c2ccc([N+](=O)[O-])cc2)o1,"inconclusive: 56.2 µM [cytotoxic, single point]"
15,OC1CCCN(c2ccc(-c3nc(-c4cccc(C(F)(F)F)c4)no3)cn2)C1 (stereo unspecified),inactive
16,Cc1ccc(NC(=O)CN2C(=O)NC(c3ccc(Cl)cc3)C3=C2COC3=O)cc1Cl (stereo unspecified),"inconclusive: 20 µM [cytotoxic, single point]"
